Reference: the supplement of paper PMC3334620
In all, about 33,000 sequences were measured (“E-score (-0.5 to 0.5)”: median about -0.036, highest 2% from about 0.37 on). Some of the results follow.

target: T1, Yer064c (UniProt P40041); assay: PBM E-score (8-mer binding enrichment) (E-score (-0.5 to 0.5)); higher = stronger / more preferred TF binding; most listed sequences are background and not binding sites; conditions: protein concentration: 200 nM; construct: GST-full length
T1 sequence: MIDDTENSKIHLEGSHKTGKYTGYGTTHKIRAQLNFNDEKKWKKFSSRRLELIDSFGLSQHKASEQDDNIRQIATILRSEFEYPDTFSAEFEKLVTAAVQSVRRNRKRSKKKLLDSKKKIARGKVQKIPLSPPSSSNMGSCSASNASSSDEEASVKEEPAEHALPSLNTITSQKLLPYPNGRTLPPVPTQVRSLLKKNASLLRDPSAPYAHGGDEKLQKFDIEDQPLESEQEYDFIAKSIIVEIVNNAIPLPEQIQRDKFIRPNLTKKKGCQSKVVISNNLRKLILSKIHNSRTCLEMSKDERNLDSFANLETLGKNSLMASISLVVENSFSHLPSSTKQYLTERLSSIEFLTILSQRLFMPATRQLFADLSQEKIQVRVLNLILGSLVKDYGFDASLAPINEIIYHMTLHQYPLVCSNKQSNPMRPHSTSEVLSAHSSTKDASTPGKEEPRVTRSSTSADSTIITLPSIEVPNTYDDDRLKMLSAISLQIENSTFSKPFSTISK
Procedure, shortened: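 Yeast transcription factors, full-length or as DNA-binding domains, were expressed with a GST tag using PURExpress in vitro transcription/translation. At about 100-200 nM they were applied to universal all-10-mer Agilent arrays, double-stranded by primer extension on fresh or once-stripped slides. Fluorescent anti-GST detected bound protein, and masliner normalised the scans. E-scores for ungapped eight-base words, pooled with reverse complements, came from the Universal PBM Analysis Suite.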

Row | Sequence | PBM E-score
1 | GGTCCAAA | -0.164
2 | AGACCCAC | -0.106
3 | ATGGGTTA | 0.142
4 | GGCCCGAA | -0.26
5 | AGAGAGAT | -0.088
6 | CCGCTTCA | -0.212
7 | ATGTACAT | -0.101
8 | CGTACCAG | -0.221
9 | AGCCGTCA | -0.103
10 | TTGGACAA | -0.0291
11 | AACCATGG | 0.218
12 | AGCCACGG | -0.0328
13 | AGATCGTA | -0.159
14 | ATGGTAAT | 0.168
15 | CAGTGCAG | -0.207
16 | ACGCACGC | -0.102
17 | CGTAGCCA | 0.0918
18 | CTAGGTGA | 0.0962
19 | GCGCTTGA | -0.0067
20 | AAACCTGA | 0.132
21 | ACTGAAGG | 0.112
22 | ATATTACA | 0.117
23 | GACATCCC | -0.215
24 | AGTCTAGC | -0.00976
25 | AATATAAA | 0.0817

Row | Sequence | PBM E-score
26 | GAATCGTC | 0.262
27 | GGCAGAAC | -0.0893
28 | CTTGGTAA | 0.0918
29 | CGGTTGGC | -0.0379
30 | ATTCGAGG | -0.00719
31 | CTCAACAA | 0.0927
32 | ATCTTTGG | -0.133
33 | GATCCTAA | -0.0928
34 | CCAGAGGG | -0.166
35 | ACAACTAC | -0.0413
36 | GTAGTAAA | 0.107
37 | CTATCAAG | 0.0982
38 | GGGGCCTA | -0.409
39 | GTCTTCAC | 0.158
40 | ACATAATG | 0.106
41 | ATAATTAC | 0.0781
42 | ACGATAAT | 0.17
43 | GTCTTCCA | 0.139
44 | GCACGTAA | -0.151
45 | ATCCGCAG | 0.0253
46 | CGCTATAG | -0.142
47 | GTTAGGTA | -0.077
48 | ATATCGTA | -0.0392
49 | AAGGACAG | -0.184
50 | CTGCGAAC | -0.0837

Row | Sequence | PBM E-score
51 | AATGGAGG | -0.358
52 | AGATATAC | -0.111
53 | ATAGAGCC | -0.139
54 | ACAGGAGG | -0.134
55 | GCGACGGA | -0.198
56 | GGCAGGTA | -0.236
57 | CCAAGGTA | 0.0879
58 | AAAGACTC | 0.409
59 | CCATGCCG | -0.072
60 | ATATTAGA | 0.0834
61 | GTGTTAAA | 0.0157
62 | AAAGGAGA | -0.0434
63 | AAGGATAA | -0.0766
64 | ACCGGCTA | -0.246
65 | GCTTGACC | -0.115
66 | GGAAGCGA | -0.112
67 | ATGTCCGG | -0.304
68 | AGAAACGC | -0.112
69 | CGTCGTCA | -0.142
70 | TCGAACCA | 0.0632
71 | ACCGATTC | 0.034
72 | GCTCGTAC | -0.067
73 | GGCGGTTA | 0.0695
74 | GCAAGAGA | -0.0253
75 | AGTCAGGC | 0.449

Row | Sequence | PBM E-score
76 | GAATCATC | 0.48
77 | CATCTGAA | 0.183
78 | CGAAACTC | -0.142
79 | ATAGACTG | 0.119
80 | AGCAGGAA | -0.0489
81 | AAGGATCT | -0.163
82 | CCGGAACG | -0.109
83 | CTGTGATA | 0.126
84 | ATCCGAAT | 0.0995
85 | AGGCTGGG | -0.276
86 | ACCTCTAA | -0.0252
87 | CGATATTC | -0.241
88 | AATACATG | -0.0609
89 | TGTATTAA | 0.188
90 | ACGACCAG | -0.0471
91 | CTGTGGTC | -0.159
92 | AGCATTAA | 0.0916
93 | AAACCCCA | -0.136
94 | ACGCGCGC | -0.058
95 | CTATCAGA | 0.0093
96 | GAGTCAAA | 0.461
97 | AGCTAAGA | 0.169
98 | GCCGACCC | -0.245
99 | ACTGTTGC | -0.0887
100 | ACGTCATC | -0.276

Row | Sequence | PBM E-score
101 | CATTCTCG | -0.0917
102 | CCATGGGC | 0.127
103 | CACATAAA | 0.0766
104 | ATTGATAC | 0.137
105 | CAACACTC | -0.122
106 | GGTGTGAC | 0.213
107 | GCCGTGTA | -0.178
108 | TAGTCAGA | 0.457
109 | CGCCCATA | -0.143
110 | GTCGAGAC | 0.166
111 | TTGCCCAA | -0.165
112 | CGAGCGAA | -0.137
113 | CGTCGTAG | 0.0225
114 | CTGAACTA | 0.05
115 | AGTCCGTG | 0.0556
116 | CCTTGACC | -0.0498
117 | GGCGAGAA | -0.0732
118 | GAGGGTCC | -0.28
119 | AACTCATG | 0.256
120 | CGTATGTA | 0.0155
121 | TACTCACA | 0.367
122 | ACGGCACG | -0.0992
123 | AATTGCAG | -0.128
124 | ACCCAGCC | -0.0554
125 | CATGATCC | 0.0741

Row | Sequence | PBM E-score
126 | GCGCCGAA | -0.0818
127 | TAGTTAAA | 0.149
128 | GGCGGTCA | -0.212
129 | AAAGCCGA | -0.14
130 | CCTACCTA | 0.00081
131 | CCGTGGGA | -0.161
132 | CAGAGCCC | -0.214
133 | TGAATTCA | 0.194
134 | AGATGTTA | -0.241
135 | AAAAAGTT | -0.00095
136 | GGACATCA | -0.157
137 | AGATATGA | 0.281
138 | CAGATACG | -0.232
139 | AAACGCCT | -0.294
140 | GATCGTGA | 0.255
141 | CCACGTCA | -0.181
142 | CGCTCAGC | -0.0668
143 | CGAGTGAA | -0.037
144 | CGTCTGCA | -0.0909
145 | GAAATGTA | -0.238
146 | ATCTAGAC | 0.116
147 | CTCGAAGA | 0.182
148 | CATCTCAA | 0.0358
149 | GACTTCCA | 0.341
150 | GTCTGAGA | 0.0446

Row | Sequence | PBM E-score
151 | AAATCTCA | 0.0869
152 | TGACCGCA | -0.0804
153 | CAGAATAC | -0.014
154 | CCCCGCAC | -0.193
155 | AATGTAAC | 0.0173
156 | GGAGAGGA | -0.0819
157 | AGCAAATC | 0.105
158 | GAGGGTTA | -0.0846
159 | TAAATGTA | 0.0886
160 | CCAATCCG | -0.0952
161 | AGGGTCAC | -0.266
162 | ACGGAACA | -0.0123
163 | CAAGCTTC | -0.201
164 | ACCGGCTG | -0.104
165 | CTTACTGC | 0.0595
166 | GTTATCAA | 0.041
167 | CATACCCC | 0.0692
168 | ACCGCGAA | -0.0355
169 | GCGACGTA | -0.135
170 | CCAATAAC | 0.032
171 | GCCCCTCA | -0.259
172 | GGTCATAC | 0.123
